Reference: the supplement of paper PMC8728848
The other results are listed elsewhere or left out.

Legend:
Experiment in all cases: glycan array binding signal (z-score within array); higher = stronger binding
Details in all cases: glycan notation: IUPAC condensed, linker removed
Gal(a1-2)Gal = target: Gal(a1-2)Gal
Procedure, shortened: (§1)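 Arrays were curated from the Consortium for Functional Glycomics database, 3228 in total, and kept only where the protein sequence was available. Binding is expressed as a within-array Z-score. This score was averaged across arrays of the same protein sequence at different concentrations or buffers and across linkers, and negative values can be read as non-binding.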

Gal(a1-3)Gal = target: Gal(a1-3)Gal
Procedure, shortened: as §1

Gal(a1-3)Gal(b1-3)Glc = target: Gal(a1-3)Gal(b1-3)Glc
Procedure, shortened: as §1

Gal(a1-3)Gal(b1-3)GlcNAc = target: Gal(a1-3)Gal(b1-3)GlcNAc
Procedure, shortened: as §1

[1] = target: Gal(a1-3)Gal(b1-3)GlcNAc(b1-2)Man
Procedure, shortened: as §1

[2] = target: Gal(a1-3)Gal(b1-3)GlcNAc(b1-2)Man(a1-3)[Gal(a1-3)Gal(b1-3)GlcNAc(b1-2)Man(a1-6)]Man(b1-4)GlcNAc(b1-4)GlcNAc
Procedure, shortened: as §1

[3] = target: Gal(a1-3)Gal(b1-3)GlcNAc(b1-3)GalNAc
Procedure, shortened: as §1

[4] = target: Gal(a1-3)Gal(b1-3)GlcNAc(b1-6)GalNAc
Procedure, shortened: as §1

[5] = target: Gal(a1-3)Gal(b1-3)[Fuc(a1-4)]GlcNAc(b1-2)Man(a1-3)[Gal(a1-3)Gal(b1-3)[Fuc(a1-4)]GlcNAc(b1-2)Man(a1-6)]Man(b1-4)GlcNAc(b1-4)GlcNAc
Procedure, shortened: as §1

Gal(a1-3)Gal(b1-4)Glc = target: Gal(a1-3)Gal(b1-4)Glc
Procedure, shortened: as §1

Gal(a1-3)Gal(b1-4)GlcNAc = target: Gal(a1-3)Gal(b1-4)GlcNAc
Procedure, shortened: as §1

[6] = target: Gal(a1-3)Gal(b1-4)GlcNAc(b1-2)Man
Procedure, shortened: as §1

[7] = target: Gal(a1-3)Gal(b1-4)GlcNAc(b1-2)Man(a1-3)[Gal(a1-3)Gal(b1-4)GlcNAc(b1-2)Man(a1-6)]Man(b1-4)GlcNAc(b1-4)GlcNAc
Procedure, shortened: as §1

[8] = target: Gal(a1-3)Gal(b1-4)GlcNAc(b1-3)GalNAc
Procedure, shortened: as §1

[9] = target: Gal(a1-3)Gal(b1-4)GlcNAc(b1-6)GalNAc
Procedure, shortened: as §1

[10] = target: Gal(a1-3)Gal(b1-4)[Fuc(a1-3)]GalNAc
Procedure, shortened: as §1

[11] = target: Gal(a1-3)Gal(b1-4)[Fuc(a1-3)]GlcNAc
Procedure, shortened: as §1

[12] = target: Gal(a1-3)Gal(b1-4)[Fuc(a1-3)]GlcNAc(b1-2)Man(a1-3)[Gal(a1-3)Gal(b1-4)[Fuc(a1-3)]GlcNAc(b1-2)Man(a1-6)]Man(b1-4)GlcNAc(b1-4)GlcNAc
Procedure, shortened: as §1

Gal(a1-3)GalNAc = target: Gal(a1-3)GalNAc
Procedure, shortened: as §1

Gal(a1-3)GlcNAc = target: Gal(a1-3)GlcNAc
Procedure, shortened: as §1

[13] = target: Gal(a1-3)[Gal(a1-4)]Gal(b1-4)GlcNAc
Procedure, shortened: as §1

[14] = target: Gal(a1-4)Gal(b1-3)GlcNAc(b1-2)Man(a1-3)[Gal(a1-4)Gal(b1-3)GlcNAc(b1-2)Man(a1-6)]Man(b1-4)GlcNAc(b1-4)GlcNAc
Procedure, shortened: as §1

Gal(a1-4)Gal(b1-4)Gal = target: Gal(a1-4)Gal(b1-4)Gal
Procedure, shortened: as §1

Gal(a1-4)Gal(b1-4)GalNAc = target: Gal(a1-4)Gal(b1-4)GalNAc
Procedure, shortened: as §1

Gal(a1-4)Gal(b1-4)Glc = target: Gal(a1-4)Gal(b1-4)Glc
Procedure, shortened: as §1

Gal(a1-4)Gal(b1-4)GlcNAc = target: Gal(a1-4)Gal(b1-4)GlcNAc
Procedure, shortened: as §1

[15] = target: Gal(a1-4)Gal(b1-4)GlcNAc(b1-2)Man(a1-3)[Gal(a1-4)Gal(b1-4)GlcNAc(b1-2)Man(a1-6)]Man(b1-4)GlcNAc(b1-4)GlcNAc
Procedure, shortened: as §1

[16] = target: Gal(a1-4)Gal(b1-4)GlcNAc(b1-3)Gal(b1-4)Glc
Procedure, shortened: as §1

Gal(a1-4)GlcNAc = target: Gal(a1-4)GlcNAc
Procedure, shortened: as §1

Gal(a1-6)Glc = target: Gal(a1-6)Glc
Procedure, shortened: as §1

Gal(b1-2)Gal = target: Gal(b1-2)Gal
Procedure, shortened: as §1

Gal(b1-3)Gal = target: Gal(b1-3)Gal
Procedure, shortened: as §1

Gal(b1-3)Gal(b1-4)GlcNAc = target: Gal(b1-3)Gal(b1-4)GlcNAc
Procedure, shortened: as §1

Gal(b1-3)GalNAc = target: Gal(b1-3)GalNAc
Procedure, shortened: as §1

[17] = target: Gal(b1-3)GalNAc(a1-3)[Fuc(a1-2)]Gal(b1-4)Glc
Procedure, shortened: as §1

[18] = target: Gal(b1-3)GalNAc(a1-3)[Fuc(a1-2)]Gal(b1-4)GlcNAc
Procedure, shortened: as §1

Gal(b1-3)GalNAc(b1-3)Gal = target: Gal(b1-3)GalNAc(b1-3)Gal
Procedure, shortened: as §1

B1: UEA-I (Ulex europaeus), P22972 (protein)
chain: SDDLSFKFKNFSQNGKDLSFQGDASVIETGVLQLNKVGNNLPDETGGIARYIAPIHIWNCNTGEVASFITSFSFFMETSANPKAATDGLTFFLAPPDSPLRRAGGYFGLFEDTKDNDSSYQTVAVEFDTIGSPVNFDDPGFPHIGIDVNRVKSINAERWNKRYGLNNVANVEIIYEASSKTLTASLTYPSDQTSISVTSIVDLKEILPEWVSVGFSGGTYIGRQATHEVLNWYFTSNLINTNS
glycan array binding signal (z-score) (Gal(a1-2)Gal): -0.226
glycan array binding signal (z-score) (Gal(a1-3)Gal): -0.198
glycan array binding signal (z-score) (Gal(a1-3)Gal(b1-3)Glc): -0.406
glycan array binding signal (z-score) (Gal(a1-3)Gal(b1-3)GlcNAc): -0.211
glycan array binding signal (z-score) [1]: -0.29
glycan array binding signal (z-score) [2]: -0.037
glycan array binding signal (z-score) [3]: -0.241
glycan array binding signal (z-score) [4]: -0.2
glycan array binding signal (z-score) [5]: -0.008
glycan array binding signal (z-score) (Gal(a1-3)Gal(b1-4)Glc): -0.131
glycan array binding signal (z-score) (Gal(a1-3)Gal(b1-4)GlcNAc): -0.182
glycan array binding signal (z-score) [6]: -0.155
glycan array binding signal (z-score) [7]: -0.163
glycan array binding signal (z-score) [8]: -0.179
glycan array binding signal (z-score) [9]: -0.264
glycan array binding signal (z-score) [10]: -0.621
glycan array binding signal (z-score) [11]: -0.222
glycan array binding signal (z-score) [12]: -0.136
glycan array binding signal (z-score) (Gal(a1-3)GalNAc): -0.177
glycan array binding signal (z-score) (Gal(a1-3)GlcNAc): -0.568
glycan array binding signal (z-score) [13]: -0.184
glycan array binding signal (z-score) [14]: -0.16
glycan array binding signal (z-score) (Gal(a1-4)Gal(b1-4)Gal): -0.37
glycan array binding signal (z-score) (Gal(a1-4)Gal(b1-4)GalNAc): -0.556
glycan array binding signal (z-score) (Gal(a1-4)Gal(b1-4)Glc): -0.134
glycan array binding signal (z-score) (Gal(a1-4)Gal(b1-4)GlcNAc): -0.149
glycan array binding signal (z-score) [15]: 0.015
glycan array binding signal (z-score) [16]: -0.195
glycan array binding signal (z-score) (Gal(a1-4)GlcNAc): -0.168
glycan array binding signal (z-score) (Gal(a1-6)Glc): -0.181
glycan array binding signal (z-score) (Gal(b1-2)Gal): -0.201
glycan array binding signal (z-score) (Gal(b1-3)Gal): -0.209
glycan array binding signal (z-score) (Gal(b1-3)Gal(b1-4)GlcNAc): -0.119
glycan array binding signal (z-score) (Gal(b1-3)GalNAc): -0.15
glycan array binding signal (z-score) [17]: -0.204
glycan array binding signal (z-score) [18]: -0.231
glycan array binding signal (z-score) (Gal(b1-3)GalNAc(b1-3)Gal): -0.216
